This is one part of the list.

The record followed here is the supplement of paper PMC11417369.

The experiment concerns PfSIP2 AP2 domain 1 (GST-tagged). Put plainly: gcPBM binding intensity (ln(normalized median fluorescence intensity)); higher = stronger DNA binding. In a few lines:
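In this array assay, P. falciparum DNA-binding domains with a GST tag, expressed in E. coli, were applied for 1 h to primer-extended double-stranded 36-bp intergenic genomic probes and negative controls on an Agilent 4 × 180k array. Bound protein was visualised with Alexa488 anti-GST antibody at 488 nm. Binding intensity is the highest Masliner-normalised natural-log median intensity across replicate spots of either probe orientation.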
On to “CATCAAAATGAAGCATGTACATAATATAAATAAATA [XGTACX_site4647]”, for which the “gcPBM binding intensity (ln)” value is 7.02.

As to “TGACGACATTTCTTATGTACTAATTTTTCTTCCTTT [XGTACX_site4391]”, the “gcPBM binding intensity (ln)” value came to 6.84.

Take “TAAAAAAAGAAAAAAAGTACATGCTACTTTTATGAT [XGTACX_site7818]”: the “gcPBM binding intensity (ln)” value was 6.99.

As for “CAAAATGATATGACAACACACAACCTATAGTAAGAC [CACACA_site1287]”, the “gcPBM binding intensity (ln)” value was determined as 7.17.

In the case of “TAATATATAATAAAGTGTACATATGCTTTATTATTA [XGTACX_site1920]”, the “gcPBM binding intensity (ln)” value stood at 6.98.

Consider “TGAATGCTTTTATGCACACGTACAAAAATATTATAT [CACACA_site2668]”, for which the “gcPBM binding intensity (ln)” value worked out at 7.38.

With “AATAAAAATAACCTAACATGCAAAAAAAAAAAAAAA [TGCATGCA_site718]”, the “gcPBM binding intensity (ln)” value came out at 6.82.

For “GTCATTAAAAAAATATGTACTTAAATGTATGCATAT [XGTACX_site5951]”, the “gcPBM binding intensity (ln)” value turned out to be 7.12.

With “GGAATATAAATACATACACACATATATATATATATA [CACACA_site4998]”, the “gcPBM binding intensity (ln)” value amounted to 9.34.

For “TATAATAAATCAAATGCACACACACTAATAAAAAAA [CACACA_site7937]”, the “gcPBM binding intensity (ln)” value came out at 7.53.

Take “TATATATTATATATATGTACTTATTTATTAATTTAT [XGTACX_site5253]”: the “gcPBM binding intensity (ln)” value came out at 7.21.

Consider “TGTGGTTTTTATAATTGTACATATATATAAATCTAT [XGTACX_site4766]”, for which the “gcPBM binding intensity (ln)” value amounted to 7.17.

For the sequence “ATATAAAATAAATAAGTGCAGATAAATTTATGTGAC [GTGCAC_site9504]”, the “gcPBM binding intensity (ln)” value was determined as 8.

As for “TGTTGTTATAAAAAAAAAAAAAAAAAAAAAAAAAAA [GTGCAC_negctrl_site230]”, the “gcPBM binding intensity (ln)” value was 7.12.

On to “ATGAATATTTACAATCTTATTATGTTCAAAATTAAT [CACACA_negctrl_site592]”, for which the “gcPBM binding intensity (ln)” value amounted to 6.69.

With “TACATGCTTATTTTAACACACAAATGGTAGTAATAA [CACACA_site766]”, the “gcPBM binding intensity (ln)” value stood at 6.93.

In the case of “ATTTATTTATTTTCATGTACATATGTAAATCAATAA [XGTACX_site3886]”, the “gcPBM binding intensity (ln)” value amounted to 7.02.

In the case of “TATATAATATAATGTAGTACATGTTTTATTTTTTAC [XGTACX_site7735]”, the “gcPBM binding intensity (ln)” value was 7.19.

As to “ATAAAATACAAAGGGACACACATATGAGTCTACAAA [CACACA_site3092]”, the “gcPBM binding intensity (ln)” value was determined as 6.83.

With “TCACAAATGTATTATACACACAAGTTTTCTTTAATA [CACACA_site4107]”, the “gcPBM binding intensity (ln)” value came out at 6.89.

Regarding “ATATTAACTTTTATTACACACTCTCAACTTTTATTT [CACACA_site6176]”, the “gcPBM binding intensity (ln)” value turned out to be 7.09.

For the sequence “AAGTTATACACATCAACACACACATACAACGTGGTG [CACACA_site8312]”, the “gcPBM binding intensity (ln)” value is 6.89.

In the case of “TAAACACATTATATATGTACATAATAAAAAAAAAAA [XGTACX_site7907]”, the “gcPBM binding intensity (ln)” value was 7.12.

As for “ATATATAAAAAAGCTAGTACACAAAAATATATAATG [XGTACX_site3001]”, the “gcPBM binding intensity (ln)” value amounted to 7.37.

As to “AAAAAAATTTATTAAAGTACTAGATAATCATATAAA [XGTACX_site1455]”, the “gcPBM binding intensity (ln)” value worked out at 7.09.

For the sequence “TTCTTTTCTCTTTTAATCATATTATATAAATGAATA [CACACA_negctrl_site820]”, the “gcPBM binding intensity (ln)” value was determined as 7.29.

With “AGAATAATATAATAAAGTACAAACCTATCTAACTAC [XGTACX_site5477]”, the “gcPBM binding intensity (ln)” value came to 7.09.

As to “ATTATAAATAAATATTGTACTTATATGATCTATTTG [XGTACX_site3820]”, the “gcPBM binding intensity (ln)” value was determined as 6.91.

For “CCTTTCACATATAATACATGCATTATTATATATGAA [TGCATGCA_site287]”, the “gcPBM binding intensity (ln)” value worked out at 7.51.

Consider “ATTGCATTTGTAGATAATACAATATGGATTGTTATA [CACACA_negctrl_site1749]”, for which the “gcPBM binding intensity (ln)” value came to 6.71.

As for “GGATATATTATATGTACACACACATATAAGGGATTA [CACACA_site7884]”, the “gcPBM binding intensity (ln)” value was 7.09.

For the sequence “AAAAATTTTATATTCACACACATATTTATATTTATA [CACACA_site6439]”, the “gcPBM binding intensity (ln)” value was 6.86.

For “GAGTAAAAATTAAAATGTACATATTATATATATTTA [XGTACX_site1319]”, the “gcPBM binding intensity (ln)” value came to 6.83.

For the sequence “ATGAATGTCCCAAGATGTACAATTATATATAACACA [XGTACX_site4702]”, the “gcPBM binding intensity (ln)” value was 7.21.

Consider “AAATCCTTATTTTTTTGTACGTAATATTTTATATGG [XGTACX_site1530]”, for which the “gcPBM binding intensity (ln)” value worked out at 6.94.

For “TAATAAATAAGACACACACACATATATATATATTAT [CACACA_site1389]”, the “gcPBM binding intensity (ln)” value came out at 7.07.

For the sequence “TTTTAAGATATAAATTAATACTTATATATATAGATA [CACACA_negctrl_site22]”, the “gcPBM binding intensity (ln)” value stood at 6.75.

For the sequence “ATAATTATTAATATAGTGCATTGGCATAATAATATA [GTGCAC_site9810]”, the “gcPBM binding intensity (ln)” value was determined as 8.38.

Regarding “ATATTAATATAATGTGCATGTTCAATGATCTTTTTA [TGCATGCA_site22]”, the “gcPBM binding intensity (ln)” value stood at 7.37.

As for “TTATACAACAAGAAAATTATAAAATGTAACATATAT [GTGCAC_negctrl_site406]”, the “gcPBM binding intensity (ln)” value was 7.05.

Take “TATTTTTTAACACAACGTACATATAAAAAATATTTA [XGTACX_site6025]”: the “gcPBM binding intensity (ln)” value was 7.08.

With “TACAAATATATATGCACACACATATATGTATATGTG [CACACA_site3075]”, the “gcPBM binding intensity (ln)” value is 7.37.

Take “TTAGATATAATATATACACACCAACGAACGAAGAAA [CACACA_site4763]”: the “gcPBM binding intensity (ln)” value worked out at 7.23.

Consider “AGTAAATAACACAAATATGAATGAAAAAAAAAATAT [GTGCAC_negctrl_site235]”, for which the “gcPBM binding intensity (ln)” value turned out to be 7.15.

As to “CAACTTATTAAAAGTCGTACAAATGGGAAGAAGGAA [XGTACX_site6325]”, the “gcPBM binding intensity (ln)” value is 7.36.

For “TGTGCGGAAATAAGTGCACACATAGATATCTGTATT [CACACA_site5935]”, the “gcPBM binding intensity (ln)” value stood at 10.9.

For “ATATATATATAGTACGCACACATAGTTGTACATTAA [CACACA_site2787]”, the “gcPBM binding intensity (ln)” value came out at 8.63.

Consider “CGTATGAGTAAATACACACCCACGTATATATATAAA [CACACA_site5728]”, for which the “gcPBM binding intensity (ln)” value stood at 7.

“TATATACACATATATAAACACACAAAAAAAAAAAAA [CACACA_site8626]”: the “gcPBM binding intensity (ln)” value amounted to 7.01.

With “ATACAAATTGTTTAAAGTACAAATTACACCTCTTAA [XGTACX_site6888]”, the “gcPBM binding intensity (ln)” value stood at 6.93.

As to “CATACAGACATACATACACACATACATACAGACATA [CACACA_site6996]”, the “gcPBM binding intensity (ln)” value was 7.2.

Take “TGTAAATATATATATACACACACACCGAAGCAATAG [CACACA_site8960]”: the “gcPBM binding intensity (ln)” value was 7.36.

As for “TTTTTTTTTTTTTAAACATGCATATTAATATTATAT [TGCATGCA_site820]”, the “gcPBM binding intensity (ln)” value was found to be 7.01.

Regarding “GTATATCACACATTTGCATGTTGTCAATAGTTTATC [TGCATGCA_site134]”, the “gcPBM binding intensity (ln)” value was 7.06.

For “TAAAAAGGAAGACACACACACACATATATAAATATA [CACACA_site7657]”, the “gcPBM binding intensity (ln)” value was found to be 6.87.

With “ACATTAAAAAAAAAATGTACATAAATATTTTTCCTT [XGTACX_site4361]”, the “gcPBM binding intensity (ln)” value is 6.91.
